IntAct's records for PubMed 17717527

B1: Exocyst complex component EXO70 (Saccharomyces cerevisiae), P19658 (parent)
chain: MPAEIDIDEADVLVLSQELQKTSKLTFEINKSLKKIAATSNQSSQLFTPILARNNVLTTLQRNIESTLNSVASVKDLANEASKYEIILQKGINQVGLKQYTQVVHKLDDMLEDIQSGQANREENSEFHGILTHLEQLIKRSEAQLRVYFISILNSIKPFDPQINITKKMPFPYYEDQQLGALSWILDYFHGNSEGSIIQDILVGERSKLILKCMAFLEPFAKEISTAKNAPYEKGSSGMNSYTEALLGFIANEKSLVDDLYSQYTESKPHVLSQILSPLISAYAKLFGANLKIVRSNLENFGFFSFELVESINDVKKSLRGKELQNYNLLQDCTQEVRQVTQSLFRDAIDRIIKKANSISTIPSNNGVTEATVDTMSRLRKFSEYKNGCLGAMDNITRENWLPSNYKEKEYTLQNEALNWEDHNVLLSCFISDCIDTLAVNLERKAQIALMPNQEPDVANPNSSKNKHKQRIGFFILMNLTLVEQIVEKSELNLMLAGEGHSRLERLKKRYISYMVSDWRDLTANLMDSVFIDSSGKKSKDKEQIKEKFRKFNEGFEDLVSKTKQYKLSDPSLKVTLKSEIISLVMPMYERFYSRYKDSFKNPRKHIKYTPDELTTVLNQLVR
partner: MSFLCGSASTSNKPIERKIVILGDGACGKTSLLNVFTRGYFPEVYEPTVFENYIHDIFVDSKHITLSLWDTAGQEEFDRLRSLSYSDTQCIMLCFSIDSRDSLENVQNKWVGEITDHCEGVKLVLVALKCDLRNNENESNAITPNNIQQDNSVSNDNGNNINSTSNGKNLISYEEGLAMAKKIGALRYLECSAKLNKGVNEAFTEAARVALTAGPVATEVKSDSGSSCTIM

Variants of: B1
Details: with rho3_yeast RHO3, Q00245

Variant	effect of a mutation on the interaction
E443A;R444A;K445A	disrupting interaction

Variants of: B1
Details: with rho3_yeast RHO3, Q00245
Remark: another data set of the same source

Variant	effect of a mutation on the interaction
E488A;K489A;E491A	disrupting interaction
